# The other results are listed elsewhere or left out.
# B1: ArathEULS3 (Arabidopsis thaliana), Q945P1 (protein)
# chain: MEHHHQHHRHHQRDDGEDDRQSFGVPPPHVDAPPQPHGLYQSQPHFDPYAPTPQAPAPYRSETQFEPHAPPPYRSEPYFETPAPPPSFGHVSHVGHQSPNESYPPEHHRYGGYQQPSNSLLESHGDHSGVTHVAHHSSNQPQSSSGVYHKPDENRLPDNLAGLAGRATVKVYSKAEPNYNLTIRDGKVILAPADPSDEAQHWYKDEKYSTKVKDADGHPCFALVNKATGEAMKHSVGATHPVHLIRYVPDKLDESVLWTESKDFGDGYRTIRMVNNTRLNVDAYHGDSKSGGVRDGTTIVLWDWNKGDNQLWKIFPFILEQKLISEEDLNSAVDHHHHHH
# Experiments:
# Test in all cases: glycan array binding signal (z-score within array); higher = stronger binding
# Settings in all cases: glycan notation: IUPAC condensed, linker removed
# [1] = biological target: Neu5Ac(a2-3)Gal(b1-3)GlcNAc(b1-3)GalNAc
# Procedure, shortened: (§1)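 From the Consortium for Functional Glycomics database, 3228 arrays were curated, keeping only those whose protein sequence was available. Binding is given as a within-array Z-score averaged across arrays sharing a protein sequence and across linkers. Negative Z-scores can be read as non-binding.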
# [2] = biological target: Neu5Ac(a2-3)Gal(b1-3)GlcNAc(b1-6)GalNAc
# Procedure, shortened: as §1
# [3] = biological target: Neu5Ac(a2-3)Gal(b1-3)GlcNAc6S
# Procedure, shortened: as §1
# [4] = biological target: Neu5Ac(a2-3)Gal(b1-3)[Fuc(a1-4)]GlcNAc
# Procedure, shortened: as §1
# [5] = biological target: Neu5Ac(a2-3)Gal(b1-3)[Fuc(a1-4)]GlcNAc(b1-3)Gal(b1-3)[Fuc(a1-4)]GlcNAc
# Procedure, shortened: as §1
# [6] = biological target: Neu5Ac(a2-3)Gal(b1-3)[Fuc(a1-4)]GlcNAc(b1-3)Gal(b1-4)[Fuc(a1-3)]GlcNAc
# Procedure, shortened: as §1
# [7] = biological target: Neu5Ac(a2-3)Gal(b1-3)[Neu5Ac(a2-3)Gal(b1-4)]GlcNAc
# Procedure, shortened: as §1
# [8] = biological target: Neu5Ac(a2-3)Gal(b1-3)[Neu5Ac(a2-6)]GalNAc
# Procedure, shortened: as §1
# [9] = biological target: Neu5Ac(a2-3)Gal(b1-3)[Neu5Ac(a2-6)]GlcNAc(b1-3)[Fuc(a1-3)[Gal(b1-4)]GlcNAc(b1-6)]Gal(b1-4)Glc
# Procedure, shortened: as §1
# [10] = biological target: Neu5Ac(a2-3)Gal(b1-4)Glc
# Procedure, shortened: as §1
# [11] = biological target: Neu5Ac(a2-3)Gal(b1-4)GlcNAc
# Procedure, shortened: as §1
# [12] = biological target: Neu5Ac(a2-3)Gal(b1-4)GlcNAc(b1-2)Man
# Procedure, shortened: as §1
# [13] = biological target: Neu5Ac(a2-3)Gal(b1-4)GlcNAc(b1-2)Man(a1-3)[GlcNAc(b1-2)Man(b1-4)GlcNAc(b1-2)Man(a1-6)]Man(b1-4)GlcNAc(b1-4)GlcNAc
# Procedure, shortened: as §1
# [14] = biological target: Neu5Ac(a2-3)Gal(b1-4)GlcNAc(b1-2)Man(a1-3)[Neu5Ac(a2-3)Gal(b1-4)GlcNAc(b1-2)Man(a1-6)]Man(b1-4)GlcNAc(b1-4)[Fuc(a1-6)]GlcNAc
# Procedure, shortened: as §1
# [15] = biological target: Neu5Ac(a2-3)Gal(b1-4)GlcNAc(b1-2)Man(a1-3)[Neu5Ac(a2-6)Gal(b1-4)GlcNAc(b1-2)Man(a1-6)]Man(b1-4)GlcNAc(b1-4)GlcNAc
# Procedure, shortened: as §1
# [16] = biological target: Neu5Ac(a2-3)Gal(b1-4)GlcNAc(b1-2)[Neu5Ac(a2-3)Gal(b1-4)GlcNAc(b1-6)]Man(a1-6)[Neu5Ac(a2-3)Gal(b1-4)GlcNAc(b1-2)Man(a1-3)]Man(b1-4)GlcNAc(b1-4)GlcNAc
# Procedure, shortened: as §1
# [17] = biological target: Neu5Ac(a2-3)Gal(b1-4)GlcNAc(b1-3)Gal
# Procedure, shortened: as §1
# [18] = biological target: Neu5Ac(a2-3)Gal(b1-4)GlcNAc(b1-3)Gal(b1-3)GlcNAc
# Procedure, shortened: as §1
# [19] = biological target: Neu5Ac(a2-3)Gal(b1-4)GlcNAc(b1-3)Gal(b1-4)GlcNAc
# Procedure, shortened: as §1
# [20] = biological target: Neu5Ac(a2-3)Gal(b1-4)GlcNAc(b1-3)Gal(b1-4)GlcNAc(b1-3)Gal(b1-4)GlcNAc
# Procedure, shortened: as §1
# [21] = biological target: Neu5Ac(a2-3)Gal(b1-4)GlcNAc(b1-3)Gal(b1-4)[Fuc(a1-3)]GlcNAc
# Procedure, shortened: as §1
# [22] = biological target: Neu5Ac(a2-3)Gal(b1-4)GlcNAc(b1-3)GalNAc
# Procedure, shortened: as §1
# [23] = biological target: Neu5Ac(a2-3)Gal(b1-4)GlcNAc(b1-3)[Neu5Ac(a2-3)Gal(b1-4)GlcNAc(b1-6)]GalNAc
# Procedure, shortened: as §1
# [24] = biological target: Neu5Ac(a2-3)Gal(b1-4)GlcNAc(b1-6)GalNAc
# Procedure, shortened: as §1
# [25] = biological target: Neu5Ac(a2-3)Gal(b1-4)GlcNAc(b1-6)[Gal(b1-3)]GalNAc
# Procedure, shortened: as §1
# [26] = biological target: Neu5Ac(a2-3)Gal(b1-4)GlcNAc(b1-6)[Neu5Ac(a2-3)Gal(b1-3)]GalNAc
# Procedure, shortened: as §1
# [27] = biological target: Neu5Ac(a2-3)Gal(b1-4)GlcNAc6S
# Procedure, shortened: as §1
# [28] = biological target: Neu5Ac(a2-3)Gal(b1-4)[Fuc(a1-3)]GlcNAc
# Procedure, shortened: as §1
# [29] = biological target: Neu5Ac(a2-3)Gal(b1-4)[Fuc(a1-3)]GlcNAc(b1-3)Gal
# Procedure, shortened: as §1
# [30] = biological target: Neu5Ac(a2-3)Gal(b1-4)[Fuc(a1-3)]GlcNAc(b1-3)Gal(b1-4)GlcNAc
# Procedure, shortened: as §1
# [31] = biological target: Neu5Ac(a2-3)Gal(b1-4)[Fuc(a1-3)]GlcNAc(b1-3)Gal(b1-4)[Fuc(a1-3)]GlcNAc(b1-3)Gal(b1-4)[Fuc(a1-3)]GlcNAc
# Procedure, shortened: as §1
# [32] = biological target: Neu5Ac(a2-3)Gal(b1-4)[Fuc(a1-3)]GlcNAc(b1-3)GalNAc
# Procedure, shortened: as §1
# [33] = biological target: Neu5Ac(a2-3)Gal(b1-4)[Fuc(a1-3)]GlcNAc(b1-6)[Gal(b1-3)]GalNAc
# Procedure, shortened: as §1
# [34] = biological target: Neu5Ac(a2-3)Gal(b1-4)[Fuc(a1-3)]GlcNAc6S
# Procedure, shortened: as §1
# [35] = biological target: Neu5Ac(a2-3)Gal6S(b1-4)GlcNAc
# Procedure, shortened: as §1
# [36] = biological target: Neu5Ac(a2-3)Gal6S(b1-4)[Fuc(a1-3)]GlcNAc
# Procedure, shortened: as §1
# [37] = biological target: Neu5Ac(a2-3)GalNAc
# Procedure, shortened: as §1
# [38] = biological target: Neu5Ac(a2-3)GalNAc(b1-4)GlcNAc
# Procedure, shortened: as §1
binder,measurement,setting,value
B1,glycan array binding signal (z-score),[1],-0.259
same,glycan array binding signal (z-score),[2],-0.265
same,glycan array binding signal (z-score),[3],-0.212
same,glycan array binding signal (z-score),[4],-0.211
same,glycan array binding signal (z-score),[5],-0.244
same,glycan array binding signal (z-score),[6],-0.301
same,glycan array binding signal (z-score),[7],-0.189
same,glycan array binding signal (z-score),[8],0.357
same,glycan array binding signal (z-score),[9],-0.217
same,glycan array binding signal (z-score),[10],0.049
same,glycan array binding signal (z-score),[11],-0.106
same,glycan array binding signal (z-score),[12],-0.101
same,glycan array binding signal (z-score),[13],-0.094
same,glycan array binding signal (z-score),[14],0.073
same,glycan array binding signal (z-score),[15],-0.138
same,glycan array binding signal (z-score),[16],1.98
same,glycan array binding signal (z-score),[17],-0.383
same,glycan array binding signal (z-score),[18],0.228
same,glycan array binding signal (z-score),[19],-0.347
same,glycan array binding signal (z-score),[20],1.44
same,glycan array binding signal (z-score),[21],-0.229
same,glycan array binding signal (z-score),[22],-0.326
same,glycan array binding signal (z-score),[23],-0.314
same,glycan array binding signal (z-score),[24],-0.302
same,glycan array binding signal (z-score),[25],-0.185
same,glycan array binding signal (z-score),[26],-0.292
same,glycan array binding signal (z-score),[27],-0.173
same,glycan array binding signal (z-score),[28],1.79
same,glycan array binding signal (z-score),[29],-0.374
same,glycan array binding signal (z-score),[30],0.376
same,glycan array binding signal (z-score),[31],-0.25
same,glycan array binding signal (z-score),[32],2
same,glycan array binding signal (z-score),[33],0.404
same,glycan array binding signal (z-score),[34],-0.191
same,glycan array binding signal (z-score),[35],-0.285
same,glycan array binding signal (z-score),[36],-0.271
same,glycan array binding signal (z-score),[37],-0.337
same,glycan array binding signal (z-score),[38],-0.246
